± gives the standard error. Variants at the floor of the assay are shown more often than the library holds them.
B1: glmS ribozyme (parent)
chain: AUAAAAGCGCCAGAACUACAGAAAUGUAGUUGACGAGGAGGAGGUUUAUCGAAUUUUCGGCGGAUGCCUCCAAA

Experiments:
Details in all cases: with glucosamine-6-phosphate
glucosamine-6-phosphate [1] = variants of: B1; assay: self-cleavage kobs at 40 uM GlcN6P; higher = faster cleavage; RNA array
In short: (§1)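 Sequenced MiSeq chips were the platform: E. coli RNA polymerase transcribed barcoded ribozyme variants on them in situ, and a hybridised Cy3 probe tracked these at 37 °C. After glucosamine-6-phosphate (40 μM to 10 mM) in HEPES/KCl/Mg(OAc)2 buffer was flowed in, tiles were imaged over ~14 h. Signals normalised to baseline and to non-cleaving reference variants were reduced to per-tile medians and fit to one- or two-exponential decays to obtain kobs. kcat and KM were derived through weighted Michaelis–Menten fits across concentrations.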

glucosamine-6-phosphate [2] = variants of: B1; assay: self-cleavage kobs at 640 uM GlcN6P; higher = faster cleavage; RNA array
In short: as §1

glucosamine-6-phosphate [3] = variants of: B1; assay: self-cleavage kobs at 2500 uM GlcN6P; higher = faster cleavage; RNA array
In short: as §1

glucosamine-6-phosphate [4] = variants of: B1; assay: self-cleavage kobs at 160 uM GlcN6P; higher = faster cleavage; RNA array
In short: as §1

glucosamine-6-phosphate [5] = variants of: B1; assay: self-cleavage kobs at 10000 uM GlcN6P; higher = faster cleavage; RNA array
In short: as §1

| Variant | self-cleavage kobs at 40 uM GlcN6P (glucosamine-6-phosphate [1]) | self-cleavage kobs at 640 uM GlcN6P (glucosamine-6-phosphate [2]) | self-cleavage kobs at 2500 uM GlcN6P (glucosamine-6-phosphate [3]) | self-cleavage kobs at 160 uM GlcN6P (glucosamine-6-phosphate [4]) | self-cleavage kobs at 10000 uM GlcN6P (glucosamine-6-phosphate [5]) |
| --- | --- | --- | --- | --- | --- |
| AUAAAAGCGCCAGAACUACAGAAAUGUAUUUGACGAGGAGGAGAUUUAUCGAAUUUUCGGCGGAUGCCUCCAAA | < 1e-05 s⁻¹ |  |  |  |  |
| AUAAAAGCGCCAGAACUACAGAAAUGUAUCUGACGAGGAGGAGGUUUAUCGAAUUUUCGGCGGAUGCCUCCAAA | < 1e-05 s⁻¹ | < 1e-05 s⁻¹ | < 1e-05 s⁻¹ |  |  |
| AUAAAAGCGCCAGAACUACAGAAAUGUACUUGACGAGGAGGAGGUUUAUCGAAUUUUCGGCUGAUGCCUCCAAA | < 1e-05 s⁻¹ |  |  | < 1e-05 s⁻¹ |  |
| AUAAAAGCGCCAGAACUACAGAAAUGUAUUUGACGAGGAGGAGGUUUAUCGAAUUUUCGGCAGAUGCCUCCAAA | < 1e-05 s⁻¹ |  |  | < 1e-05 s⁻¹ | < 1e-05 s⁻¹ |
| AUAAAAGCGCCAGAACUACAGAAAUGUACCUGCCGAGGAGGGGGUUUAUCGAAUAAUCGGCGGAUGCCUCCAAA | < 1e-05 s⁻¹ |  |  |  | < 1e-05 s⁻¹ |
| AUAAAAGCGCCAGAACUACAGAAAUGUACUUGACGAGGAGGAGGUUUAUCGCAUUUUCGGCGGAUGCCUCCAAA | < 1e-05 s⁻¹ | < 1e-05 s⁻¹ | < 1e-05 s⁻¹ | < 1e-05 s⁻¹ | < 1e-05 s⁻¹ |
| AUAAAAGCGCCAGAACUACAGAAAUAUAGUUGACGAGGUCGAGGUUUAUCGAAUUUUCGGCGGAUGCCUCCAAA | 5.34e-05 ± 1.4e-05 s⁻¹ |  |  |  |  |
| AUAAAAGCGCCAGAACUACAGAAAUGUAGAUGACGAGGAGGAGGUUUAUCGAAUUUUCGGCGGGUGCCUCCAAA | 0.000149 ± 2.6e-05 s⁻¹ | 0.00193 ± 0.00045 s⁻¹ | 0.0035 ± 0.0008 s⁻¹ | 0.000656 ± 0.00022 s⁻¹ | 0.00607 ± 0.0014 s⁻¹ |
| AUAAAAGCGCCAGAACUACAGAAAUGUAUUUGAUGAGGAGGCGGUUUAUCGAAUUUUCGGCGGAUGCCUCCAAA | < 1e-05 s⁻¹ | < 1e-05 s⁻¹ | < 1e-05 s⁻¹ | < 1e-05 s⁻¹ | < 1e-05 s⁻¹ |
| AUAAAAGCGCCAGAACUACAGAAAUGUAUUUGUCGAGCAAGAGGUUUAUCGAAUUUUCGGCGGAUGCCUCCAAA | < 1e-05 s⁻¹ |  |  |  |  |
| AUAAAAGCGCCAGAACUACAGAAAUGUAGAUGCCGAGGAGGAGGUUUAUCGAAUUUUCGGCGGAUGCCUCCAAA | < 1e-05 s⁻¹ |  |  |  |  |
| AUAAAAGCGCCAGAACUACAGAAAUGUACUGGACGAGGAGGAGGUUUAUCGAAUUUUCGUCGGAUGCCUCCAAA | < 1e-05 s⁻¹ |  |  |  |  |
| AUAAAAGCGCCAGAACUACAGAAAUGUAAUUGACGAGGAGGGGGUUUAUCGAAUUUUCGUCGGAUGACUCCAAA | < 1e-05 s⁻¹ |  |  |  |  |
| AUAAAAGCGCCAGAACUACAGAAAUGUACUUGACGAGGGGGAGGUUUAUCGAAUUUUCGGCGGAUGCCUCCAAA | 0.000107 ± 1.2e-05 s⁻¹ | 0.000768 ± 0.00012 s⁻¹ | 0.00223 ± 0.00037 s⁻¹ | 0.000305 ± 6.8e-05 s⁻¹ | 0.00525 ± 0.00064 s⁻¹ |
| AUAAAAGCGCCAGAACUACAGAAAUGUAAUCGACGAGGAGCAGGUUUCUCGAAUUUUCGGCGGAUGCGUCCAAA | < 1e-05 s⁻¹ |  |  |  | < 1e-05 s⁻¹ |
| AUAAAAGCGCCAGAACUACAGAAAUGUAUUUGACGAGGAGGACGUUUAUCGAAUUUUCGGCGGAUGCCUCCAAA | < 1e-05 s⁻¹ | < 1e-05 s⁻¹ |  |  | < 1e-05 s⁻¹ |

| Variant | self-cleavage kobs at 40 uM GlcN6P (glucosamine-6-phosphate [1]) | self-cleavage kobs at 640 uM GlcN6P (glucosamine-6-phosphate [2]) | self-cleavage kobs at 2500 uM GlcN6P (glucosamine-6-phosphate [3]) | self-cleavage kobs at 160 uM GlcN6P (glucosamine-6-phosphate [4]) | self-cleavage kobs at 10000 uM GlcN6P (glucosamine-6-phosphate [5]) |
| --- | --- | --- | --- | --- | --- |
| AUAAAAGCGCCAGAACUACAGAAAUGUAAUUGACGAGGUGGAGGUUUAUCGAAUUUUCGGCGGAUGCCUCCAAA | 0.000107 ± 1.9e-05 s⁻¹ | 0.000731 ± 0.00013 s⁻¹ | 0.00176 ± 0.0003 s⁻¹ | 0.000177 ± 3.4e-05 s⁻¹ | 0.0037 ± 0.00049 s⁻¹ |
| AUAAAAGCGCCAGAACUACAGAAAUGUACUUGACGAGGAGGAGGUUUAUCGAAUUUUCGGCGGAUCCCUCCAAA | < 1e-05 s⁻¹ |  |  |  |  |
| AUAAAAGCGCCAGAACUACAGAAAUGUACUUGACGAGGAGGAGGUAUAUCGAAUUUUCGGCGUAUGCCUCCAAA | < 1e-05 s⁻¹ |  |  |  |  |
| AUAAAAGCGCCAGAACUACAGAAAUGUAAUUGACCAGGGGUACGUUUAUCGAAUUUUCGGCAGUUGCCUCCAAA | < 1e-05 s⁻¹ |  |  |  |  |
| AUAAAAGCGCCAGAACUACAGAAAUGUAAUUGAGGAGGAGGAGGUUUAUCGAAUUUUCGGCGGAUGCCUCCAAA | < 1e-05 s⁻¹ | < 1e-05 s⁻¹ |  | < 1e-05 s⁻¹ | < 1e-05 s⁻¹ |
| AUAAAAGCGCCAGAACUACAGAAAUGUAUUUGACGAGGAGGAGGUUAAUCGAAUUUUCGGCGUAUGCCUCGAAA | < 1e-05 s⁻¹ |  |  |  |  |
| AUAAAAGCGCCAGAACUACAGAAAUGUACUUGACGAGGAGCAGGUUUAUCGAAUUUACGGCGGAUGCCUCCAAA | < 1e-05 s⁻¹ |  |  |  | < 1e-05 s⁻¹ |
| AUAAAAGCGCCAGAACUACAGAAAUGUACUUGACGAGGAGGAGGUUUAUCGAACUUUCGGCGGAUGCCUCCAAA | 6.42e-05 ± 1.4e-05 s⁻¹ | 0.000301 ± 7.9e-05 s⁻¹ | 0.000773 ± 0.00014 s⁻¹ | 0.000153 ± 2.5e-05 s⁻¹ | 0.0019 ± 0.00032 s⁻¹ |
| AUAAAAGCGCCAGAACUACAGAAAUGUAAUUGCCGAGGAGGAUGUUUAUCGAAUUUUCGGCGGAUGCCUCUAAA | < 1e-05 s⁻¹ |  |  |  | < 1e-05 s⁻¹ |
| AUAAAAGCGCCAGAACUACAGAAAUGUAUUUGCCGAGGAGGAGGUUUAUCGAAUUUUCGGCGGAUGCCUUCAAA | < 1e-05 s⁻¹ | < 1e-05 s⁻¹ | < 1e-05 s⁻¹ | < 1e-05 s⁻¹ |  |
| AUAAAAGCGCCAGAACUACAGAAAUGUAUUUGACGAGGCGGAGGUUUAUCGAAUUUCCGGCGGAUGCCUCCAAA | < 1e-05 s⁻¹ |  |  |  |  |
| AUAAAAGCGCCAGAACUACAGAAAUGUACUUGACGAGGAGGAGAUUUAUCGAAUUUUCGGCGGAUGCCUCCAAA | < 1e-05 s⁻¹ |  |  |  |  |
| AUAAAAGCGCCAGAACUACAGAAAUGUAUUUGACGAGGAGGAGGUUUACCGAAUUUUCGGCGGAUGCCUCCAAA | < 1e-05 s⁻¹ |  | < 1e-05 s⁻¹ |  | < 1e-05 s⁻¹ |
| AUAAAAGCGCCAGAACUACAGAAAUGUAUUUGACGAGGAGGAGGUUUAUCGAAUUUUCGGCGGAUGACUCCAAA | 5.58e-05 ± 7.8e-06 s⁻¹ | 0.000276 ± 3.9e-05 s⁻¹ |  | 9.85e-05 ± 1.4e-05 s⁻¹ |  |
| AUAAAAGCGCCAGAACUACAGAAAUGUAAUUGACGAGGAGGAGGUUUGUCGAAUUUUCGGCGGAUGCCUCCAAA | < 1e-05 s⁻¹ | < 1e-05 s⁻¹ |  | < 1e-05 s⁻¹ |  |

From the supplement of paper PMC7125110
